# Among all 410,000 compounds or so, about 530 (0.13%) were called active. Inconclusive results, whose numbers are uncertain, are shown with a selection of clear calls. The call rests on the fitted dose curve; in most records, active means well fitted inhibition curve with a large enough effect; inconclusive means small, poorly fitted or top-dose-only effect, or another doubt; inactive means no such curve, though single readings can be large or run the other way. Potencies of inconclusive entries are doubtful fits and often do not repeat.
# Assay: qHTS of GLP-1 Receptor Inverse Agonists: Cytotox Screen
# Settings: HEK293 cAMP-luciferase reporter cells, luminescence, 24 h; series mostly up to 38.3 µM
# How it was run: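 A 23 nL compound transfer followed 12 hours of cell culture at 37 deg C; exposure then lasted 24 hr. Luciferase assay detection reagent was dispensed and plates read for luminescence after a 12 min room-temperature wait.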
# Potency means the concentration at half of the fitted maximal effect.
row,SMILES,Potency
1,C/C(=N\NC(=O)c1nnn(-c2nonc2N)c1CN(C)c1ccccc1)c1ccc(O)cc1,"inconclusive: 28.2 µM [inhibitor, single point]"
2,O=C(Oc1ccc(Cl)c2cccnc12)c1cccc([N+](=O)[O-])c1,"inconclusive: 2 µM [inhibitor, full curve, poor fit]"
3,COc1cc(/C=C/c2c([N+](=O)[O-])c(=O)n(C)c(=O)n2C)cc(OC)c1OC,"inconclusive: 28.2 µM [inhibitor, single point]"
4,COc1cc(OC)cc(C(=O)NNC(=O)c2ccc3ccccc3n2)c1,"inconclusive: 2.51 µM [inhibitor, partial curve, poor fit]"
5,Cc1ccc(Cl)cc1N1CCN(S(=O)(=O)c2ccc3[nH]c(=O)ccc3c2)CC1,"inconclusive: 22.4 µM [inhibitor, single point]"
6,CC(C)c1ccc(C2c3c(-c4ccccc4O)n[nH]c3C(=O)N2Cc2ccncc2)cc1 (stereo not given),"inconclusive: 11.2 µM [inhibitor, partial curve, poor fit]"
7,C=CCc1cccc(/C=N/NC(=O)CCCNc2ccc(C)cc2)c1O,"inconclusive: 28.2 µM [inhibitor, single point]"
8,CCc1ccc(C2CC(=O)c3c([nH]c(C(=O)OCCOc4ccccc4)c3C)C2)cc1 (stereo not given),"inconclusive: 6.31 µM [inhibitor, partial curve, poor fit]"
9,COc1cccc(Cn2c(CNS(=O)(=O)c3ccc(C(C)(C)C)cc3)nc3cccnc32)c1,inactive
10,CCOC(=O)c1ccc(N=c2sc(C(=O)OC)cc(=O)n2Cc2ccco2)cc1,"inconclusive: 22.4 µM [inhibitor, single point]"
11,C(=N\Nc1ncnc2ccccc12)/c1ccccc1,"inconclusive: 3.16 µM [inhibitor, full curve, poor fit]"
12,CCOC(=O)c1sc2nc(C)nc(SCC(=O)N(C)C3CCS(=O)(=O)C3)c2c1C (stereo not given),inactive
13,CN(C)CCCN(C(=O)c1ccc(S(=O)(=O)N(C)C2CCCCC2)cc1)c1nc2ccc(F)cc2s1,"inconclusive: 12.6 µM [inhibitor, single point]"
14,O=C(NCc1ccc2c(c1)OCO2)C1CCCN1C(=O)Nc1ccccc1 (stereo not given),"inconclusive: 2.24 µM [inhibitor, full curve]"
15,CCSS(=O)(=O)c1cccc2cccnc12,"inconclusive: 28.2 µM [inhibitor, single point]"
16,Cn1c(CCN2CCCCC2)nc2cc(NC(=O)COc3ccc(Cl)cc3)ccc21,"inconclusive: 28.2 µM [inhibitor, single point]"
17,Cc1cc(-n2c(C)cc(C(=O)CSc3ncnc4ccccc34)c2C)no1,inactive
18,O=C(N/N=C/c1ccc([N+](=O)[O-])o1)C1CCCC1,"inconclusive: 3.98 µM [inhibitor, full curve, poor fit]"
19,COc1ccc(CN2CCC(n3nccc3NC(=O)c3ccc4c(c3)OCO4)CC2)cc1C,"inconclusive: 7.94 µM [inhibitor, partial curve, poor fit]"
20,COCCNCC(=O)Nc1ccccc1Sc1ccccc1,"inconclusive: 0.501 µM [inhibitor, full curve, poor fit]"
21,Cc1nn(-c2ccc(N3CCCC3)nn2)c(C)c1CCC(=O)N1CCN(c2ccccc2)CC1,inactive
22,Cc1cc(C)cc(-n2ccn(CC(=O)Nc3cc(C)ccc3C)c(=O)c2=O)c1,inactive

row,SMILES,Potency
1,Fc1ccc(N2CCN(C3=Nc4cccc5cccc3c45)CC2)cc1,"inconclusive: 28.2 µM [inhibitor, single point]"
2,COCCOC(=O)C1=C(C)NC2=C(C(=O)CC(C)(C)C2)C1c1cccnc1 (stereo not given),inactive
3,CCOC(=O)c1nnc(-c2ccccc2)nc1Sc1ccccc1Cl,"inconclusive: 12.6 µM [inhibitor, single point]"
4,O=C(NC(=S)Nc1nc2ccc(F)cc2s1)c1ccco1,"inconclusive: 1.12 µM [inhibitor, full curve, poor fit]"
5,CCCCOc1ccc(Br)cc1CSC(=N)N,"inconclusive: 28.2 µM [inhibitor, single point]"
6,CC1CCCCN1C(=O)C1CCN(c2nc(-c3ccccc3)nc3c2CCC3)CC1 (stereo not given),"inconclusive: 22.4 µM [inhibitor, single point]"
7,O=C(Nc1cccc(C(F)(F)F)c1)c1cc(-c2ccc(F)cc2)on1,"inconclusive: 28.2 µM [inhibitor, single point]"
8,CCN1C(=O)C(NC(C)=O)c2cc(OC)ccc21 (stereo not given),inactive
9,C1CCN(CCCNC2C3CC4CC(C3)CC2C4)C1 (stereo not given),"inconclusive: 10 µM [inhibitor, partial curve, poor fit]"
10,O=C(CCCSc1ccccc1)Nc1nc(-c2ccco2)c(-c2ccco2)s1,"inconclusive: 12.6 µM [inhibitor, single point]"
11,O=C(CSc1nnc(CCc2ccccc2)n1-c1ccc(Cl)cc1)c1ccccc1,"inconclusive: 25.1 µM [inhibitor, single point]"
12,CC1=NN(C(N)=S)C(=O)C1N=Nc1cccc(Cl)c1C (stereo not given),"inconclusive: 0.501 µM [inhibitor, full curve, poor fit]"
13,O=C(c1ccc2c(c1)OCO2)c1ccc[nH]1,"inconclusive: 3.16 µM [inhibitor, full curve, poor fit]"
14,OCCC1CN(C2CCN(c3ccccc3)CC2)CCN1Cc1ccc(F)c(F)c1 (stereo not given),"inconclusive: 1 µM [inhibitor, full curve, poor fit]"
15,CC1(C)Cc2c(sc(NC(=O)c3ccccc3)c2C(=O)O)CO1,"inconclusive: 14.1 µM [inhibitor, single point]"
16,Cc1ccc(-c2nn(-c3cccc(F)c3)cc2CN(Cc2nccn2C)C(C)C)o1,"inconclusive: 20 µM [inhibitor, single point]"
17,Cc1cc(-c2ccc(C)c(S(=O)(=O)NCC3CCN(Cc4ccc(F)cc4)CC3)c2)on1,"inconclusive: 11.2 µM [inhibitor, single point]"
18,O=C(Cn1ccc(=O)[nH]c1=O)c1ccc([N+](=O)[O-])o1,"inconclusive: 28.2 µM [inhibitor, single point]"
19,O=C(Nc1c(-c2ccccc2)nc2ccccn12)c1cccc(F)c1,inactive
20,CCOc1ccc(N2C(=O)C3C4C=CC(CC4)C3C2=O)c([N+](=O)[O-])c1 (stereo not given),inactive
21,Cc1ccc(C)c(N2CCN(C(=O)C3CCCN(Cc4nc(-c5cccc(Cl)c5)oc4C)C3)CC2)c1 (stereo not given),inactive
22,CC1=C(C(=O)Nc2cc(-c3cccc(F)c3)[nH]n2)C2(CCCCC2)OC1=O,"inconclusive: 28.2 µM [inhibitor, single point]"

row,SMILES,Potency
1,CC(C)CN(C(=O)CCCOc1ccc(Cl)cc1Cl)c1c(N)n(Cc2ccccc2)c(=O)[nH]c1=O,"inconclusive: 10 µM [inhibitor, single point]"
2,CCC1CN(C(=O)N2CCC(C(=O)NCc3cccc(C)c3)CC2)c2ccccc2O1 (stereo not given),inactive
3,CCCCC(CC)CNC(=O)CN1C(=O)CSc2ccc(S(=O)(=O)N3CCOCC3)cc21 (stereo not given),inactive
4,CC1C/C(=N\NC(=S)NCc2ccccc2)CC(C)(C)C1 (stereo not given),"inconclusive: 7.94 µM [inhibitor, partial curve, poor fit]"
5,COc1ccc(NC(=O)N2CCN(c3ccc([N+](=O)[O-])cc3)CC2)cc1OC,"inconclusive: 10 µM [inhibitor, partial curve]"
6,COc1cccc(/C=C/C(=O)OCC(=O)Nc2ccc(Cl)c(S(=O)(=O)N(C)C)c2)c1,inactive
7,Cc1nc(Nc2ccc(Cl)cc2Cl)sc1C(=O)Nc1ccccc1,inactive
8,CCOc1ccccc1C(=O)NC1CC2CCCC(C1)N2Cc1ccc(C)cc1 (stereo not given),"inconclusive: 3.55 µM [inhibitor, partial curve, poor fit]"
9,N=c1n(CCN2CCCCC2)c2ccccc2n1CC(=O)c1ccc(Cl)c(Cl)c1,"inconclusive: 11.2 µM [inhibitor, single point]"
10,Cc1noc(C)c1S(=O)(=O)Nc1ccc2c(c1)C(=O)N([C@H](C)CO)C[C@H](C)[C@@H](CN(C)Cc1ccc(C(=O)O)cc1)O2,"inconclusive: 0.501 µM [inhibitor, full curve, poor fit]"
11,CC(NC(=O)CN1C(=O)NC(Cc2ccccc2)(Cc2ccccc2)C1=O)C12CC3CC(CC(C3)C1)C2 (stereo not given),"inconclusive: 28.2 µM [inhibitor, single point]"
12,COc1cc(/C=N\NC(=O)c2ccccc2F)ccc1Oc1ccc([N+](=O)[O-])cn1,"inconclusive: 5.01 µM [inhibitor, full curve, poor fit]"
13,O=C(NCCNC(=O)c1ccccc1Br)c1ccccc1Br,inactive
14,O=C(Cn1ccc(C(F)(F)F)n1)NNC(=O)c1cccnc1,inactive
15,Cc1onc(-c2ccccc2Cl)c1C(=O)Oc1cc(F)cc(F)c1,inactive
16,CC(/C=N/NC(=O)CCn1nnc2ccccc21)=C\c1ccccc1,"inconclusive: 14.1 µM [inhibitor, single point]"
17,Cc1c(CCOC(=O)C23CC4CC(CC(C4)C2)C3)sc[n+]1CC#N,"inconclusive: 28.2 µM [inhibitor, single point]"
18,CCNc1nc(NC(C)C)nc(N(C#N)CCOc2ccc(Cl)cc2Cl)n1,"inconclusive: 11.2 µM [inhibitor, single point]"
19,CC(NC(=O)c1ccc2ccccc2n1)c1ccccc1 (stereo not given),inactive
20,CCC[C@H](CN[C@@H](CNC)[C@H](C)CC)NCCc1cc(C(F)(F)F)cc(C(F)(F)F)c1,"inconclusive: 11.2 µM [inhibitor, single point]"
21,C/C(=N\NC(=S)Nc1cccc(C)c1)c1ccccc1,"inconclusive: 2.51 µM [inhibitor, full curve, poor fit]"
